Experimental data: PubChem BioAssay AID1347417 (National Center for Advancing Translational Sciences (NCATS), 2020)
About 5,300 (4.4%) of roughly 120,000 compounds were called active. Inconclusive results, whose numbers are uncertain, are shown with a selection of clear calls. Calls follow the shape of the dose curve; as a rule, active = well fitted inhibition curve with a large enough effect; inconclusive = small, poorly fitted or top-dose-only effect; inactive = no such curve, though single readings can be large or run the other way. Potencies of inconclusive entries are doubtful fits and often do not repeat.

assay: qHTS Primary assay for Inhibitors of Plasmodium falciparum Dd2 growth in vitro; also: nearly all actives have a fitted effect of over 65% in size;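 as to activity, negative = inhibition: plate controls were DMSO vehicle for no effect and reference drug for full effect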; details: P. falciparum Dd2 growth, SYBR Green, 72 h; activity, negative = inhibition: at 28.9 µM (top of the series) unless noted; series mostly up to 28.9 µM
In short: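 Infected erythrocytes (Dd2, 0.3% parasitemia, 2.5% hematocrit final) are added to compound in RPMI-1640/Albumax II medium, grown 72 h at 37C in low oxygen, then lysed with saponin/Triton-X containing SYBR Green and read by fluorescence.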
Potency is read from the fitted curve at half-maximal effect; tags tell the direction and shape of the fitted curve.

Compound | Potency | activity, negative = inhibition
CC1(c2ccccc2)N(Cc2ccc(O)cc2)C(=O)OC12CCN(Cc1ccc(C#N)cc1)CC2 (stereo not drawn) | inconclusive: 1.26 µM [inhibitor, single point] | –
Cc1ccccc1Cn1c(=O)n(CCc2ccccc2)c(=O)c2ccccc21 | inconclusive: 17.8 µM [inhibitor, single point] | –
Cc1nc(CN2CCCC(CCc3ccccc3C(F)(F)F)C2)no1 (stereo not drawn) | inconclusive: 8.91 µM [inhibitor, single point] | –
O=C(Cn1c2ncccc2c(=O)n1-c1ccccc1)Nc1ccc(F)c(F)c1 | inactive | –
O=C(c1cccc(F)c1)N1CCC2(CC1)N(CC1CC1)C(=O)CS2=O (stereo not drawn) | inactive | –
O=C(NCc1ccc(Cl)cc1)C1CCCN(c2nc3ccccc3n3cccc23)C1 (stereo not drawn) | inconclusive: 17.8 µM [inhibitor, single point] | –
Cc1onc(C(=O)N2CCCCCCNC(=O)[C@@H]3CCCC[C@@H]32)c1Cn1cccn1 | inconclusive: 17.8 µM [inhibitor, single point] | –
CN(C)CCNC(=O)c1nc2nc(-c3ccccc3)c(Nc3ccc(F)cc3)cc2n1C | active: 7.08 µM | –
CCc1cccc2c(C(CC(=O)NCCc3ccc(OC)c(OC)c3)c3cccc(OC)c3)c[nH]c12 (stereo not drawn) | inactive | –
CN1C(=O)c2cccn2CC1CNC(=O)COc1ccccc1 (stereo not drawn) | inconclusive: 20 µM [inhibitor, partial curve, poor fit] | –
NC(=O)c1cccc(-c2n[nH]c3c2CC(=O)N(Cc2ccccc2)C3)c1 | inconclusive: 10 µM [inhibitor, partial curve, poor fit] | –
COc1cc(OC)cc(C(=O)N2CCC(Cc3nc(-c4cccc(OC)c4)no3)CC2)c1 | inactive | –
O=C(COc1ccccc1)N1CCCC(c2noc(COc3ccccc3)n2)C1 (stereo not drawn) | inconclusive: 10 µM [inhibitor, single point] | –
COc1ccc(Cl)cc1S(=O)(=O)N1CCC2(CCCNC2)C1 (stereo not drawn) | inconclusive: 1.78 µM [inhibitor, full curve] | –
CN(Cc1ccccc1C(F)(F)F)C(=O)Nc1ccc(Cl)cc1 | inconclusive: 8.91 µM [inhibitor, partial curve, poor fit] | –
CCc1nc2c(c(-c3ccc(Cl)cc3)n1)CN(C(=O)c1ccccc1C)CC2 | inconclusive: 11.2 µM [inhibitor, single point] | –
CCOc1cc(C2c3c(-c4ccc(Br)cc4)n[nH]c3C(=O)N2c2ccc(Cl)cc2)ccc1O (stereo not drawn) | inconclusive: 11.2 µM [inhibitor, single point] | –
O=C(c1cccc(-n2cnnc2)c1)N(Cc1ccsc1)CC1CCCO1 (stereo not drawn) | inactive | –
COc1cccc(CN2C[C@@H](CO)[C@H](c3ccncc3)C2)c1OC | inconclusive: 11.2 µM [inhibitor, partial curve, poor fit] | –
CC(C)CCNC(=O)c1cnc2c(c1)N(C(=O)Cc1cccc(C(F)(F)F)c1)CCC2 | inconclusive: 28.2 µM [inhibitor, single point] | –
CCn1cc(CN2CCCC(COc3ccccc3C(=O)N3CCCC3)C2)c2ccccc21 (stereo not drawn) | inconclusive: 1.58 µM [inhibitor, partial curve] | –

Compound | Potency | activity, negative = inhibition
Cc1ccc(N(Cc2cccs2)C(=O)c2ccc(Br)o2)cc1 | inconclusive: 7.94 µM [inhibitor, partial curve, poor fit] | –
Cc1ccsc1[C@@H]1CCN(Cc2ccc(C#CC(C)(C)O)cc2)C[C@H]1O | inconclusive: 10 µM [inhibitor, single point] | –
COc1ccc(CNC(=O)Cc2c(C)c3c(cc(C)c4c(C)c(C)oc43)oc2=O)cc1 | inactive | –
COc1ccc2c(c1)cc(C(=O)N1Cc3[nH]cnc3CC1C(=O)O)n2C (stereo not drawn) | inconclusive: 11.2 µM [inhibitor, single point] | –
Cc1cc(S(=O)(=O)N2CCCC(Cn3cnc4cccnc43)C2)ccc1Cl (stereo not drawn) | inactive | –
Cc1nn(-c2ccc(C(F)(F)F)cc2)c(C)c1[C@@H]1C=C[C@@H](NC(=O)c2ccc(N(C)C)cc2)C1 | inconclusive: 17.8 µM [inhibitor, single point] | –
CN(C)C(=O)C1CN(C(=O)Nc2cccc(Br)c2)CC12CCOCC2 (stereo not drawn) | inconclusive: 0.282 µM [inhibitor, full curve, poor fit] | –
CN(C)C(C(=O)NCc1cc(F)c(F)c(F)c1F)c1cccc(F)c1 (stereo not drawn) | inconclusive: 5.62 µM [inhibitor, partial curve] | –
O=[S+]([O-])(c1ccncc1)c1nnn2c1nc(NCc1ccncc1)c1ccccc12 | inactive | –
CC(C)S(=O)(=O)NCC1Cn2cccc2CN1Cc1ccccc1 (stereo not drawn) | inconclusive: 12.6 µM [inhibitor, single point] | –
CCOC(=O)N1CCC(NC(=O)c2ccc3c(c2)N(Cc2ccc(F)cc2)C(=O)c2ccccc2S3(=O)=O)CC1 | inconclusive: 17.8 µM [inhibitor, single point] | –
CCc1ccc(CNC(=O)CCC(=O)N2Cc3cccc(OC)c3Oc3ncccc32)cc1 | inconclusive: 15.8 µM [inhibitor, single point] | –
CCn1cc(CN2CCCN(S(C)(=O)=O)C(c3ccccc3)CC(=O)NCC2)c(C)n1 (stereo not drawn) | inconclusive: 7.94 µM [inhibitor, partial curve] | –
Cc1nn(Cc2ccccc2)c(C)c1[C@@H]1C=C[C@@H](NC(=O)c2cccs2)C1 | inconclusive: 2.51 µM [inhibitor, partial curve, poor fit] | –
c1ccc(-c2nc3c(c(NCC4OCCc5ccccc54)n2)CCNC3)nc1 (stereo not drawn) | inconclusive: 10 µM [inhibitor, partial curve, poor fit] | –
O=C(NCC1CCCO1)Nc1cccc(-c2nnc3n2CCCC3)c1 (stereo not drawn) | inconclusive: 17.8 µM [inhibitor, single point] | –
COCCCNC(=O)CSC1=Nc2ccccc2C2=NC(CCC(=O)NCc3ccccc3OC)C(=O)N12 (stereo not drawn) | inactive | –
O=C(C1CCOCC1)N1CCC2(CC1)NCCc1c2[nH]c2ccccc12 | inconclusive: 10 µM [inhibitor, partial curve, poor fit] | –
Cc1nnc(SCc2ccccc2)c2cc3sccc3n12 | inconclusive: 10 µM [inhibitor, partial curve] | –
CCCC1=Nc2cc(C(=O)NC3CCC(C)CC3)ccc2Sc2ccccc21 (stereo not drawn) | inconclusive: 11.2 µM [inhibitor, partial curve, poor fit] | –
Cc1ccc(C)c(Cn2c3ccccc3c3cnn(CC(=O)NCCCc4ccccc4)c(=O)c32)c1 | inactive | –

Compound | Potency | activity, negative = inhibition
CCN(CC)CCOC(=O)c1ccc(NC(=O)Cn2ncc3c([nH]c4ccc(C)cc43)c2=O)cc1 | inconclusive: 10 µM [inhibitor, single point] | –
O=C1CN(Cc2cccc(-c3ccsc3)c2)CCN1c1cc(Cl)ncn1 | inactive | –
COCC(=O)N[C@@H]1CN(Cc2ccc(C#N)cc2)CC[C@@H]1c1nc(C)no1 | – | inactive: 24.9% [at 5.79 µM]
Nc1c(-c2nc(-c3cccs3)no2)nnn1-c1ccccc1Cl | inactive | –
COc1ccc2cc1Nc1ccc(cc1)C[C@H](NCc1ccc(O)cc1)C(=O)N(C)[C@H](C(=O)NCCOc1ccccc1)C2 | active: 2.51 µM | –
O=C(c1ccccc1C(F)(F)F)N1CCC2(C1)C(=O)Nc1ccccc12 (stereo not drawn) | inconclusive: 15.8 µM [inhibitor, single point] | –
COc1ccc(-n2nc3n(c2=O)CCN(Cc2ccsc2)C3)cc1 | – | inconclusive: -168% [inhibitor]
Clc1cccc(-c2noc(-c3ncn4c3COC(c3ccccc3Cl)C4)n2)c1 (stereo not drawn) | inconclusive: 17.8 µM [inhibitor, single point] | –
CCCCOc1ccc(C(=O)Nc2nnc3n2CCS3)cc1 | inconclusive: 10 µM [inhibitor, single point] | –
CC(C)(C)CN1CCC2(CC1)CN[S+](=O)([O-])c1cccnc1O2 | active: 8.91 µM | –
O=C(O)c1ccc(CN2CC[C@H](c3nnc(-c4ccc(Cl)cc4)o3)C2)cc1 | inconclusive: 11.2 µM [inhibitor, single point] | –
Cc1ccc(-c2nnc(Nc3ccc(O)cc3)c3ccccc23)cc1S(=O)(=O)N1CCN(C)CC1 | inconclusive: 0.158 µM [inhibitor, full curve, poor fit] | –
COCC1CN(S(=O)(=O)c2cc(F)ccc2C)CC12CCNCC2 (stereo not drawn) | inconclusive: 3.98 µM [inhibitor, full curve, poor fit] | –
COc1ccccc1CNC[C@H]1O[C@H](Cc2cc(CN(C)Cc3ccccc3)on2)CC[C@@H]1O | inconclusive: 1.12 µM [inhibitor, full curve] | –
CCCc1ccc(S(=O)(=O)N2C[C@@H](F)C[C@H]2C(=O)N2CCCCC2)cc1 | inconclusive: 8.91 µM [inhibitor, single point] | –
Cc1cc(C)cc(NC(=O)CSc2nc3c(oc4ccccc43)c(=O)n2-c2ccccc2F)c1 | inconclusive: 10 µM [inhibitor, single point] | –
Cc1cc(C)cc(NC(=O)Cn2c(-c3cccc(Cl)c3)nc(C)c(CCO)c2=O)c1 | active: 10 µM | –
CCn1c(=O)c2cc(C(=O)N(CCN(C)C)Cc3ccccc3)sc2c2ccccc21 | inconclusive: 1 µM [inhibitor, full curve, poor fit] | –
O=C(CO)N1CCCC(N2CCN(c3cccc(C(F)(F)F)c3)CC2)C1 (stereo not drawn) | inactive | –
CCCCN(CC)C(=O)Cn1ccn2nc3c(c2c1=O)CCCC3 | inactive | –
Cc1ccc(Cn2cc(-c3ccncc3)cc2C(=O)N2CCCCCC2)cc1 | inconclusive: 8.91 µM [inhibitor, partial curve, poor fit] | –
